# About 6,900 (2%) of roughly 340,000 compounds were called active. No stated cut-off is given here; in the data, active means inhibition above about 30%; inactive means below that, where a call was filed. The list shows a part of the results, in another mix than the full data. Where no call is shown, the source filed none.
# Biological target: D(2) dopamine receptor (Homo sapiens) (UniProt P14416)
# Test: HTS Assay for Allosteric Antagonists of the Human D2 Dopamine Receptor: Primary Screen for Antagonists; further: 0% is about no effect
# Settings: HEK293 TREx D2 cells, calcium flux, dopamine EC80; at 10 µM; stronger effect = higher value
# Procedure, shortened: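 Measurement of antagonist activity uses fluorescent calcium dye in inducible HEK293 T-REx D2 cells: 10 s baseline, compound addition with 180 s read, EC80 dopamine addition with a further 180 s read.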
# Sequence of UniProt P14416 (P14416 whole entry, looked up): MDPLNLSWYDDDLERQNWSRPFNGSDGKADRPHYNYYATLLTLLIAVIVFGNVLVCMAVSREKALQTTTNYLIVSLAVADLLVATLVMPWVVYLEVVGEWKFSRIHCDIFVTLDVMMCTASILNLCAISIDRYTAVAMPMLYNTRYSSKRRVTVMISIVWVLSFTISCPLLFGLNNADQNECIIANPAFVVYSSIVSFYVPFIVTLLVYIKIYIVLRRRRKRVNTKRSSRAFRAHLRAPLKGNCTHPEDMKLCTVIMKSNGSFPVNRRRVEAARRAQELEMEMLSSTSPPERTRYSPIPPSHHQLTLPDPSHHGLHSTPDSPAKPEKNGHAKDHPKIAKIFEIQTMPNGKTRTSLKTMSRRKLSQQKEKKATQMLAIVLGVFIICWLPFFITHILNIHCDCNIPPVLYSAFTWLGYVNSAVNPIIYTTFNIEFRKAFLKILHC
row,SMILES,inhibition
1,Cc1ccc(CCNC(=O)CN(c2ccc(C)cc2)S(=O)(=O)c2c(C)noc2C)cc1,-9.19%
2,COc1ccccc1CNc1ccc(-c2nc(C(C)C)no2)cc1[N+](=O)[O-],15.1%
3,COc1ccc(NC(=O)Cn2cnc3sc(C)c(S(=O)(=O)N4CCN(C)CC4)c3c2=O)cc1OC,25%
4,Cc1ccc(C)c(NC(=O)Cn2cc(C(=O)c3ccncc3)c(=O)c3cc(F)ccc32)c1,-14.9%
5,CCOc1ccc(CNC(=O)c2cc3oc4ccccc4c3n2C)cc1,1.67%
6,Cc1cc(C)c2c(CC(=O)N(Cc3ccc(N(C)C)cc3)Cc3ccco3)coc2c1,9.19%
7,O=C(CSc1nc2c(c(=O)[nH]1)CCC2)Nc1ccccc1F,10.1%
8,CN(C)c1ccc(CNc2nc(-c3ccco3)nn2S(=O)(=O)c2ccc3ccccc3c2)cc1,-15.3%
9,CN(Cc1nc(-c2cccc(Cl)c2)no1)C1CCOCC1,active: 46.9%
10,CCCCOc1ccc(-c2nonc2NC(=O)c2ccco2)cc1,11.7%
11,COc1ccc(NC(=O)CCNS(=O)(=O)c2cccc3nonc23)cc1,12.8%
12,CCCC(=O)N1c2ncnn2C2(CCCCC2)[C@@H]2CCCC[C@@H]21,6.2%
13,Cc1ccc(OCC(=O)NCC2(N3CCN(C)CC3)CCCCC2)cc1C,-27%
14,Cc1ccc(Cn2cccc2C2=NC(C)(C)CO2)cc1,13.4%
15,COc1ccccc1OC(C)C(=O)NCC1(N2CCOCC2)CCCCC1 (configuration not stated),-24.3%
16,COCCCN(C(=O)Cc1coc2cc(C)c(C)cc12)c1c(N)n(Cc2ccccc2)c(=O)[nH]c1=O,active: 48.2%
17,CCS(=O)(=O)N1N=C(c2ccc(C)cc2)CC1c1cc2ccc(OC)cc2nc1Cl (configuration not stated),-4.59%
18,CC1CCN(S(=O)(=O)c2ccc3c(c2)N(CC(=O)NC(C)C)C(=O)CS3)CC1,0.609%
19,Cc1ccc(OC(=O)c2cc(-c3ccc4c(c3)OCCO4)on2)c(C)c1,-0.412%
20,CCc1nn(CCCC(=O)NCc2ccccc2Br)c(=O)c2cc3occc3n12,0.483%
21,CCOC(=O)c1cccc(NC(=O)c2cc(CN3CCCC3)on2)c1,2.4%
22,COc1ccc(OC)c(NC(=O)CSc2c3c(nc4ccccc24)CCCC3)c1,-5.97%
23,Cc1ccc(S(=O)(=O)NCCc2nnc3ccc(SCc4ccccc4C)nn23)cc1,-12.4%
24,Cn1c(=O)c(=O)n(C)c2cc(S(=O)(=O)NCCN3CCN(c4ccccc4F)CC3)ccc21,active: 42.8%
25,COc1ccc(N2CCN(C(=O)Cn3cnc4nc5c(cc4c3=O)CCCC5)CC2)cc1,-22.7%
26,S=C(Nc1ccc(Br)cc1)NC1CCN(Cc2ccccc2)CC1,active: 109%
27,Cc1ccc2nc(N3C(=O)C(O)=C(C(=O)c4ccco4)C3c3ccc(C)o3)sc2c1 (configuration not stated),active: 31%

# Reference: PubChem BioAssay AID485344 (National Center for Advancing Translational Sciences (NCATS), 2010)
